# Source: the supplement of paper PMC10338343
# ± gives the standard deviation. Only a part is listed here, and it is no random draw.
# Tested on: MIWI (PIWIL1) piRISC loaded with L1MC piRNA (30 nt)
# Test: pre-steady-state target cleavage rate (min^-1); MIWI and MILI are mouse PIWI proteins and EfPiwi is from a freshwater sponge; tags in brackets are library labels; higher = faster piRNA-guided slicing of the target
# Conditions: guide: L1MC piRNA 5'p-UAACUAAAUACUAUGCAAGCUGUAGGUCCU; auxiliary factor: 500 nM mouse GTSF1
# How it was run: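 The pre-steady-state cleavage rate was derived from a burst-and-steady-state fit of Cleave-'n-Seq data. For these assays, 1 nM active affinity-purified piRISC loaded with a single synthetic guide was mixed with […] a transcribed, DNA-blocked target RNA library in HEPES–potassium acetate buffer at 33 °C, with or without 500 nM GTSF1 partner protein, for 0–8 or 0–960 min. Sequencing counts of uncleaved targets were normalised to depth and to weakly complementary targets, and k3 was capped at 0.0001 min^-1 after three trials were pooled.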
# 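Further: 1 nM active piRISC with 0.1 nM target library at 33 °C single turnover.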
row,Sequence,pre-steady-state target cleavage rate
1,UCCACCUACAGCUACCAUAGUAUUUUCAAA,0.012 ± 0.0064
2,UCCUCCUACAGCUUCCAUAGAAUUUAGUUA,0.023 ± 0.011
3,UCCUGGAUGUCCUUGCAUACUAUUUAGUAA,0.00563 ± 0.0043
4,UCCUGCUACAGCUUGCAAUGUAUUUAGAAA,0.0959 ± 0.021
5,UCCUGGAUGUCGAACGUUAGUAUUUAGUUU [g2:g13:cont:t1U],< 0.0001
6,UCGACCUACAGCUUGCAUAGUAAAAAGUAA,0.197 ± 0.026
7,UGGACCUACAGCUUGCAUAGUAUAUUCAAA,0.231 ± 0.047
8,UCCUCCUACAGCUUCGUUAGUAUUUAGUAA,0.0325 ± 0.011
9,AGGACCUACAGCUUGCAUAGUUUUAGUUA,0.25 ± 0.086
10,UGGACCUACAGCUUGCAUAGUUAUUACAAA,0.0207 ± 0.0062
11,UCCUGGAUCAGCUUGCAUUGUAUUUUCAAA,0.0122 ± 0.0052
12,UCCUGGAUCAGCUUGCAUAGAAUUUUCAAA,0.00664 ± 0.005
13,UGGACCUACAGCUUCCAUAGUAUUUAGAAA,0.00611 ± 0.0034
14,UCCUGGUACAGCUUGCAUUCUAUUUAGUUA,0.116 ± 0.041
15,UCGACCUACAGCAUGCAUAGUAUUUACAAA,0.527 ± 0.067
16,UCCUGGAUCAGGUUGCAUAGUAUUUACAAA,0.036 ± 0.012
17,UCCUGGUACAGCUUGGUAAGUAUUUAGUAA,0.0102 ± 0.0047
18,UGGACCUACAGCUUGCAUAGUUAAUAGAAA,0.0323 ± 0.01

row,Sequence,pre-steady-state target cleavage rate
1,UCCACCUACAGCUUCCAUAGUAUUUACUUA,0.0591 ± 0.022
2,AGGUGCUACAGCUUGCAUAGUAUUUACAAA,0.149 ± 0.032
3,UCCUGGAACAGCUUGCAUAGUAUUUAUUA,0.167 ± 0.033
4,UCCUGGAUGUGCUUGCAUUGUAAUUAGUUA,0.00438 ± 0.0035
5,UCGACCUACAGCUUGCAUAGUAAAAACAAA,0.194 ± 0.043
6,UCCUGGUACAGCUUGGUUAGUAUUUAGAAA,0.169 ± 0.045
7,UCCUGGAUCAGCUUGGUUAGUAUUUAGAAA,0.0111 ± 0.0054
8,UCGACCUUCAGCUUGCAUAGUAUUUUCAAA,0.384 ± 0.046
9,UGGACCUACAGCUUGCAAAGUAUUUUCAAA,0.13 ± 0.023
10,UCCUGGAUGUCGAAGGCAUAGUAUUUAGUUA,0.00396 ± 0.0036
11,UCGACCUACAGCUUGCAUUCUAUUUACAAA,0.146 ± 0.047
12,UCCACCAACAGCUUGCAUAGUAUUUUCAAA,0.37 ± 0.05
13,UCGACCUACAGCUUGCAUUCUAUUUAGAAA,0.137 ± 0.039
14,UCCUGCUACAGCUUGCAUAGUAUAAUCAAA [g8:g25:cont:t1A],0.319 ± 0.068
15,UCCUGGAUCAGCUUGCAUAGUAAAAAGUAA,0.0113 ± 0.0058
16,UGGACCUACAGCUUCGAUAGUAUUUAGUUA,0.807 ± 0.087
17,UCCUGGAUGUGCUUGCAUAGUAUUUAUUA,0.0179 ± 0.0058
18,UCGACCUACAGCUUGCAAUGUAUUUACAAA,0.077 ± 0.018
